The text below walks through data of PMC12604968, “Mutant NPM1 modulates PDCD4 ubiquitination degradation and facilitates leukemogenesis” (iScience, 2025).

Chains of the proteins cited; added tags and fusions are not shown.
UniProt Q09028: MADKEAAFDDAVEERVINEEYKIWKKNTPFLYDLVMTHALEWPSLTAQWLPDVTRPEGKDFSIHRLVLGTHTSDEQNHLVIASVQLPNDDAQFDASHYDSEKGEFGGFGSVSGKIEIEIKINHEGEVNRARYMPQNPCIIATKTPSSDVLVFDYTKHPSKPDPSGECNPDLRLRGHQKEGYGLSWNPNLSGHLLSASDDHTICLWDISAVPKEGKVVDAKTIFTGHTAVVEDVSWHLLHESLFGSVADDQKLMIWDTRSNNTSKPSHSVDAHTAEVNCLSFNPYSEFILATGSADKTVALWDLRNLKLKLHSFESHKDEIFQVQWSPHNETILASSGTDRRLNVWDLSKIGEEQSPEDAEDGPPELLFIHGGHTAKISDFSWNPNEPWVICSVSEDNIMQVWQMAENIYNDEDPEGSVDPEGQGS

These are yes or no findings as the source states them, for the method shown. For part of these data: Binding seen in cells or lysates may run through a third protein. Some entries that bind do so weakly or less than the wild type. For part of these data: Tags and fused reporters may be left off the sequences shown.

In assay [1] the target is T1, PDCD4, endogenous (human (endogenous; cell line not stated, all cell lines of the paper are human)) (UniProt Q53EL6).
T1 sequence: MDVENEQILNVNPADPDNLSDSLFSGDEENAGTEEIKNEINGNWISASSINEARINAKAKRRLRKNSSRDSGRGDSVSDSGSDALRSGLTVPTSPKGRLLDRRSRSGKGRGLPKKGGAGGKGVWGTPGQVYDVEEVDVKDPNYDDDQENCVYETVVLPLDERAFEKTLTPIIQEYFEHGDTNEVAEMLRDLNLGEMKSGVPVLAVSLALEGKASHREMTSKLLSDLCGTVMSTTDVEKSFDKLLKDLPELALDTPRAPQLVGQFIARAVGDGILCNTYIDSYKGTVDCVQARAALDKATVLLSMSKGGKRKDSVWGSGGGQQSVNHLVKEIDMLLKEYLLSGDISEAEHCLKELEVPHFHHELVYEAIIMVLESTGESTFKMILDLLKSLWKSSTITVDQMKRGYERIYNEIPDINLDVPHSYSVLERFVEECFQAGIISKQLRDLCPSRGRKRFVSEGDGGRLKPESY
Put plainly: co-IP; endogenous proteins, whole cell lysates, protein G Dynabeads, anti-PDCD4 antibody, IgG as control; western blot.

Assay [2] has as its target T2, GST-PDCD4 recombinant protein (human, UniProt Q53EL6 1-469).
T2 construct: PDCD4 (programmed cell death 4), human, amplified from cDNA of HEK293T cells and cloned into pGEX-6P-1; pGEX-6P-1 is known to add GST at the N-terminus; also called GST-tagged PDCD4; source: E. coli BL21 (DE3), purified (Glutathione Sepharose 4FF)
T2 sequence (looked up): T1 sequence
Put plainly: pull-down; GST-PDCD4 immobilised on Glutathione Sepharose 4FF beads, incubated with cell lysate; western blot of the pull-down samples; only the target purified. Background: Immunoblotting shows a protein as a band on a membrane.

Assay [3] has as its target T2, GST-PDCD4 recombinant protein. Put plainly: pull-down; GST-PDCD4 immobilised on Glutathione Sepharose 4FF beads, incubated with purified His-tagged proteins; SDS-PAGE, Coomassie blue; both purified.
Assay [4] addresses T3, HA-tagged PDCD4 (human) (UniProt Q53EL6).
T3 sequence: T1 sequence
Put plainly: co-IP; HA-tagged PDCD4 or PDCD4-ΔNoLS overexpressed in HEK-293T cells; lysate immunoprecipitated with anti-HA beads; western blot with anti-HA and anti-RBBP4.

Assay [5] concerns the target T1, PDCD4, endogenous (human (endogenous; cell line not stated, all cell lines of the paper are human)). Put plainly: co-IP; PDCD4 and RBBP4; IgG as negative control; cells and antibody not stated.
The target in assay [6] is T4, Biotin-PDCD4-NoLS peptide (human).
T4 sequence (peptide, biotin on the N-terminus): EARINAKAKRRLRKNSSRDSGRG
Put plainly: pull-down; biotin-tagged PDCD4-NoLS peptide immobilised on streptavidin-conjugated beads, incubated with AML cell lysate; western blot; only the target purified.

Assay [7] deals with T5, GFP-PDCD4-ΔNT (human) (UniProt Q53EL6).
T5 sequence: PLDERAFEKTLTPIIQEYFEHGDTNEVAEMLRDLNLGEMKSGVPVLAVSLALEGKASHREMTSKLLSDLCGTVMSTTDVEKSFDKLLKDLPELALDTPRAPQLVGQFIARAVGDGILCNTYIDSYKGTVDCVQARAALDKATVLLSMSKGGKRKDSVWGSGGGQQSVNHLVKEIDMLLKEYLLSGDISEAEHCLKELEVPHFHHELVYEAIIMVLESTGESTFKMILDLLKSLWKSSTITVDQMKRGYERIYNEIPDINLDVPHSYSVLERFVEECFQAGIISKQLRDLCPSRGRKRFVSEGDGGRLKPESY
Description: condition: 50 μM purified NPM1-NT, 1:1 dilution series of 16 samples; MST; purified NPM1-NT (50 μM, 16-sample 1:1 dilution series) as ligand, GFP-PDCD4 constructs in HEK293T RIPA lysate as fluorescent targets; Monolith NT.115; only the binder purified.

Assay [8] concerns the target T6, GFP-PDCD4-NT (human) (UniProt Q53EL6).
T6 sequence: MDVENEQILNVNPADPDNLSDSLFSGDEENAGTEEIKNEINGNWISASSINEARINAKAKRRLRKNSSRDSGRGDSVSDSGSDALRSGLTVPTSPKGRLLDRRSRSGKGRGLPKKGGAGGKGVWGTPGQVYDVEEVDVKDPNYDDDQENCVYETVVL
Put plainly: MST; purified NPM1-NT (50 μM, 16-sample 1:1 dilution series) as ligand, GFP-PDCD4 constructs in HEK293T RIPA lysate as fluorescent targets; Monolith NT.115; only the binder purified.

Regarding “NPM1 (Nucleophosmin 1), endogenous (from UniProt P06748 1-294)”, the binding result in assay [1] and in assay [2] was “binds” in each case.

Consider “purified his-tagged RBBP4 protein (from UniProt Q09028 1-425)”, for which the binding entry in assay [3] is on record as “binds”.

For “RBBP4, endogenous (from UniProt Q09028 1-425)”, the binding entry in assay [4], in assay [5], in assay [2] and in assay [6] was “binds” each time.

B1: His-tagged NPM1 N-terminal domain (NPM1-NT, aa 1-117) (domain or fragment, human, UniProt P06748 1-117, looked up)
chain: MEDSMDMDMSPLRPQNYLFGCELKADKDYHFKVDNDENEHQLSLRTVSLGAGAKDELHIVEAEAMNYEGSPIKVTLATLKMSVQPTVSLGGFEITPPVVLRLKCGSGPVHISGQHLV
notes: source: E. coli BL21 (DE3), purified (Ni-NTA)
As to B1, the binding entry in assay [7] was “no binding”; in assay [8], “binds”.
